# In paper PMC6919601, “Identification of Plasmodium dipeptidyl aminopeptidase allosteric inhibitors by high throughput screening” (PLoS ONE, 2019):
# Out of some 110,000 compounds screened, about 230 (0.21%) showed an effect of 50% or more. The list shows a part of the results.
# Biological target: DPAP1 (Plasmodium falciparum, UniProt Q8IIJ9)
# Assay: primary screen, percent inhibition; read by cleavage of a fluorogenic dipeptide substrate; higher = more effect of the substance
# Set-up: species or system P. falciparum D10 trophozoite lysates; single well
# 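Also: 30 min substrate incubation versus DMSO and 10 µM JCP410 controls.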
# Chain of DPAP1 (Q8IIJ9 whole entry, looked up): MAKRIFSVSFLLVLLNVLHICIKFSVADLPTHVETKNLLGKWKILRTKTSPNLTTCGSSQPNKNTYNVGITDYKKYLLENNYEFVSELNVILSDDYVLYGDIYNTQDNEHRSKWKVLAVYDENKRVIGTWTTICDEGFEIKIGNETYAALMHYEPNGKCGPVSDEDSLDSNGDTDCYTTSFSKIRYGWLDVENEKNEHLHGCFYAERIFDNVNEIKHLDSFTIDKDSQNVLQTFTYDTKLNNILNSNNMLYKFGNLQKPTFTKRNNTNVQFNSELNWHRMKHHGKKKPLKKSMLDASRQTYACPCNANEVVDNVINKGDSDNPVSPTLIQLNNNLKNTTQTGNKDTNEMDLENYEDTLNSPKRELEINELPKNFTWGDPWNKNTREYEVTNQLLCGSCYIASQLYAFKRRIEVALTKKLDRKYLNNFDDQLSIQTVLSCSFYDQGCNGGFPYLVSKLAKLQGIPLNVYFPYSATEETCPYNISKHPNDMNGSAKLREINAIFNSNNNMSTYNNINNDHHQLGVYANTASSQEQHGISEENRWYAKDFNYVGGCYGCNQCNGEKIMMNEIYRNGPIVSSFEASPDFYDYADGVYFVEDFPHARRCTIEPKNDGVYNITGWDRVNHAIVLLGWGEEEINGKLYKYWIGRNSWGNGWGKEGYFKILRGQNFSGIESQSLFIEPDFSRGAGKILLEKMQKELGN
row,SMILES,% Inhibition @ 10 uM
1,Oc1nc(O)c(-c2ccccc2)c(O)n1,2.36%
2,CCOc1cc2c(cc1OCC)C(c1ccc(OC)c(C)c1)NCC2 (stereo not drawn),-8.41%
3,COc1ccccc1CN(CCCN(C)C)CCCN(C)C,-0.0494%
4,O=C(c1ccc(-c2ccccc2)cc1)N(CC1CC1)CC1CCCO1 (stereo not drawn),0.13%
5,O=C(NC1CCCc2ccccc21)c1cc(C2CC2)[nH]n1 (stereo not drawn),-0.537%
6,C=CCN1C(=O)/C(=C/Nc2cccnc2Cl)C(=O)N(CCCC)C1=O,4.01%
7,COc1cc2c(cc1OC)C(COc1cc(C)cc(C)c1)N(C(=O)c1ccco1)CC2 (stereo not drawn),2.24%
8,CSc1nc(N)nc(SCC(=O)Nc2nc(C)cs2)c1C#N,4.97%
9,COc1ccc(C(=O)N/C(=C\c2ccc3c(c2)OCO3)C(=O)N2CCCCC2)cc1,4.28%
10,Cc1ccc(-n2nnnc2SCC(=O)Nc2nn(-c3ccccc3)nc2C(N)=O)c(C)c1,-2.63%
11,O=C(CSc1cn(CC(=O)N2CCOCC2)c2ccccc12)NC1CCCC1,2.46%
12,Cc1nc2c([nH]1)sc1ccccc12,1.12%
13,O=C(O)c1cc(S(=O)(=O)Nc2cccc(Cl)c2)ccc1Cl,-3.23%
14,O=C(CSc1nc2cccnc2[nH]1)NCc1nc2ccccc2[nH]1,1.63%
15,COCCNC(=O)/C(C#N)=C/c1c(Oc2cc(C)ccc2C(C)C)nc2ccccn2c1=O,-7.04%
16,Cc1c(/C=C/C(=O)O)c(=O)n(Cc2ccccc2)c(=O)n1Cc1ccccc1,8.27%
17,O=C(/C=C/c1ccccc1)c1ccc2c(c1)OCCCCO2,-0.711%
18,CCOC(=O)c1nc(O)c2ccccc2c1O,2.26%
19,COCCNc1ncnc2onc(-c3cccc(Cl)c3)c12,-5.76%
20,Cc1csc(NC(=O)c2cc3c(s2)-c2ccccc2OC3)n1,1.89%
21,CCOC(=O)N1CCC(NCCc2cccc(Cl)c2)CC1,-1.5%

row,SMILES,% Inhibition @ 10 uM
1,COc1ccc(S(=O)(=O)Nc2ccc(CC#N)cc2)cc1OC,-4.7%
2,Cc1cc(C)n(CC(O)Cn2c3ccc(Cl)cc3c3cc(Cl)ccc32)n1 (stereo not drawn),2.58%
3,Cc1cccc(CCNC(=O)C(NS(=O)(=O)c2cccc3nsnc23)C(C)C)c1 (stereo not drawn),-0.465%
4,CCOc1nc(-c2ccccc2)ccc1-c1noc(-c2ccc(OC)c(OC)c2)n1,-1.33%
5,CCCCN(C)Cc1ccc(O)c([N+](=O)[O-])c1,-2.95%
6,COc1cc2c(C(=O)N3CCOCC3)c(C)n(-c3ccccc3)c2cc1Br,4.08%
7,C=CCN1C(=O)NC(=O)/C(=C/c2ccc(O)c(OC)c2)C1=O,-4.84%
8,O=C(Nc1nc(-c2ccc(Br)cc2)cs1)c1c(O)nc2ccccc2c1O,-3.89%
9,COc1ccc(CN2CCN(Cc3ccc(Cl)cc3)CC2)c(OC)c1OC,-6.59%
10,CCn1cc(C(=O)O)c(=O)c2cc(F)c(N(C)C)c(F)c21,-4.31%
11,COc1cc(-c2nc(C)c(C(C)=O)n2O)ccc1OCC(=O)Nc1cccc(C(F)(F)F)c1,-9.55%
12,Cn1c(=O)c2c(ncn2Cc2ccccc2Cl)n(C)c1=O,-8.4%
13,Cc1ccc(C(=O)NCC2OCCc3ccccc32)cc1 (stereo not drawn),-0.958%
14,O=C(Nc1ccc(N2CCOCC2)cc1)c1cccc2ccccc12,1.96%
15,CN(Cc1ccccc1)C(=O)C(c1ccccc1)N1Cc2ccccc2C1=O (stereo not drawn),2.71%
16,CN1c2ccccc2N(C)C1c1ccc(F)cc1,5.24%
17,Cc1cccn2c(=O)c3cc(C#N)c(=O)n(Cc4ccc5c(c4)OCO5)c3nc12,1.12%
18,CCN(Cc1ccccc1)C(=O)c1cc2c(s1)-c1ccccc1OC2,-1.37%
19,COc1cc(C2C3=C(O)CCCC3=Nc3c2c(=O)n(C)c(=O)n3C)ccc1OCc1ccccc1 (stereo not drawn),1.96%
20,CC1CC(C)CN(C(=O)c2cccnc2Cl)C1 (stereo not drawn),-3.49%
21,COc1ccccc1-c1nc(S(=O)(=O)c2ccccc2)c(N2CCCCC2)o1,2.49%

row,SMILES,% Inhibition @ 10 uM
1,CCOc1ccc(C(=O)C2=C(O)C(=O)N(c3nnc(C)s3)C2c2ccccc2)cc1 (stereo not drawn),3.8%
2,COc1cc2c(cc1OC)CN(Cc1cc(OC)c(O)c(OC)c1)CC2,6.18%
3,NC1=NC(=O)/C(=C\c2ccc3c(c2)OCO3)S1,11.8%
4,CCN1C(=O)N/C(=C/c2cc(OC)c(OC)cc2OC)C1=O,-2.78%
5,COc1ccc(CN2CCN(C(=O)c3cccs3)CC2)cc1OC,-11.6%
6,CCN1C(=O)S/C(=C/c2cn(CC(=O)Nc3ccc(F)cc3)c3ccccc23)C1=O,-0.891%
7,COc1cc2cc(C(=O)O)[nH]c2c(OC)c1OC,-2.79%
8,CC(c1ccccc1)N1C(=O)c2ccccc2C1O (stereo not drawn),-4.74%
9,COc1ccc(-n2nc3c(c2NC(=O)/C=C\c2ccccc2)CS(=O)(=O)C3)cc1,13.1%
10,CCOc1ccc(N2C(=O)CC(NCC34CC5CC(CC(C5)C3)C4)C2=O)cc1 (stereo not drawn),6.42%
11,O=c1c2ccccc2n2c(-c3cc(Br)cs3)nnc2n1Cc1ccccc1,-7.29%
12,COc1ccc(-n2c3c(c(=O)[nH]c2=O)C(NC(=O)c2ccc(F)cc2)(C(F)(F)F)C(=O)N3)cc1 (stereo not drawn),3.57%
13,Cc1cccc(C)c1-n1c(C)cc(/C=C2/C(=N)N3C(=NC2=O)SN=C3S(C)(=O)=O)c1C,-3.39%
14,CC[C@H](NC(=O)[C@H](Cc1c(F)cccc1F)/N=C(\NCC(F)(F)F)c1ccc(-c2ccccc2Cl)cc1)C(=O)c1nc2ccccc2o1,-4.82%
15,CC(C)(C)C1CCc2c(sc3nnnc(O)c23)C1 (stereo not drawn),-1.16%
16,O=C(CSC1CC(=O)N(c2cccc(Cl)c2)C1=O)Nc1ccc(F)cc1 (stereo not drawn),2.13%
17,COc1ccc(Br)cc1CN1CCCCCC1,-7.33%
18,CC(C)CNc1oc(/C=C/c2ccc(F)cc2)nc1C#N,-0.808%
19,CCc1ccc(/C=C/C2=CC(C)(C)NC(S)=N2)cc1,-1.58%
20,CCCCNC(=O)c1cc2c(O)nc3ccc(C)cc3c2s1,2.85%
21,O=S(=O)(c1ccc(OC(F)(F)F)cc1)N1CCNCC1,-0.671%
